Measured values: paper PMC4336329 (PLoS ONE, 2015)
In all, about 310,000 compounds went through this assay and about 2,200 (0.71%) showed an effect of 50% or more. The effect is printed as a negative number. Some of the results follow.

biological target: human ether-à-go-go-related gene (hERG) potassium channel (human, UniProt Q12809); test: primary screen, population patch clamp on CHO cells stably expressing hERG
Sequence (Q12809 whole entry, looked up): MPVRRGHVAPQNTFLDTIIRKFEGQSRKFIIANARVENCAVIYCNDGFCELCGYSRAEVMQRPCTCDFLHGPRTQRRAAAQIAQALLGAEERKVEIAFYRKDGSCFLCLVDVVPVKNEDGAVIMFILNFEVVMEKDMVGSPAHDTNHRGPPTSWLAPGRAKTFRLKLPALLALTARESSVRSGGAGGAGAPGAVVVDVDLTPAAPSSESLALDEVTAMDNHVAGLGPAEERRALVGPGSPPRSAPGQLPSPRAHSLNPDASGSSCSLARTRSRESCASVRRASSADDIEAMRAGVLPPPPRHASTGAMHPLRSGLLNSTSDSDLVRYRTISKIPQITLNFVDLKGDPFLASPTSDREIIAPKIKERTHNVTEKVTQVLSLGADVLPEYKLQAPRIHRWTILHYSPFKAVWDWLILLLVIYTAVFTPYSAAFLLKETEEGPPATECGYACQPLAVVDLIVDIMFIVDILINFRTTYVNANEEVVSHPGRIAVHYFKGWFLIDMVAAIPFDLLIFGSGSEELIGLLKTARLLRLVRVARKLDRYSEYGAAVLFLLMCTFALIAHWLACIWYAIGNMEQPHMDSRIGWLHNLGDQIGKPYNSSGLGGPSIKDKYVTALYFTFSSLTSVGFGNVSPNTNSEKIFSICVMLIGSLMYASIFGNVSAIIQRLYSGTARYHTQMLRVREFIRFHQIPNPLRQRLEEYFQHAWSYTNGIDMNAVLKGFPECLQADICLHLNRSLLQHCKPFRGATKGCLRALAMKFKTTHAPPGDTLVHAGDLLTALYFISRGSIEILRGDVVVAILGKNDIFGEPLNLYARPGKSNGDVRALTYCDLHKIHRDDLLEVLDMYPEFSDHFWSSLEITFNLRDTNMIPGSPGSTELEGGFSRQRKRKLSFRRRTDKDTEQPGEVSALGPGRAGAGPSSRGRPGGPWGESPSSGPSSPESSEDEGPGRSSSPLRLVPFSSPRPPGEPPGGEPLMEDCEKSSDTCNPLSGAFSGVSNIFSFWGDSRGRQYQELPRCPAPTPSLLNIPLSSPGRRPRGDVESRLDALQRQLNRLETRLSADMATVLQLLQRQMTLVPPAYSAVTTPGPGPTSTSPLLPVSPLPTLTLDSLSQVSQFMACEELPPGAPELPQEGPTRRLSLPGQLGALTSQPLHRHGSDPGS

Structure (SMILES) | hERG current change (%, negative = inhibition) at 1uM [%]
Cc1ccc(C(C)NC(=O)COC(=O)C2=COCCO2)cc1C (stereo not drawn) | 8.35
CC1Cc2ccccc2N1C(=O)CSc1nnnn1C(C)C (stereo not drawn) | 12.9
COc1cc(/C=N/NC(=O)c2cc3ccccc3[nH]2)ccc1O | 13
Cc1cc(C)nc(SCCn2c(N3CC(C)OC(C)C3)nc3c2c(=O)n(C)c(=O)n3C)n1 (stereo not drawn) | 10.6
Cc1cc(N(CC(=O)NC(C)C)S(C)(=O)=O)ccc1Br | 18.2
COc1ccc(NC(=O)Cc2coc3ccc4ccccc4c23)cc1S(=O)(=O)N1CCOCC1 | -0.271
CC(C)C(=O)NC(=S)/C=C1/N(C)c2ccccc2C1(C)C | 5.4
O=C(NCc1cccnc1)C(=O)Nc1nc2ccccc2s1 | 4.08
COc1ccc(OCCCSc2ncccn2)cc1 | 5.98
O=C(O)c1cccc(-c2nc3ccccc3[nH]2)c1 | 7.55
COc1ccc(CNC(=O)c2cccnc2Sc2ccc(Cl)cc2)cc1 | 2.07
CCOc1ccc(-c2nc(N)ncc2Oc2ccccc2Br)c(O)c1 | 11.9
O=C(N/N=C/c1cccn1-c1ccccc1)c1ccncc1 | 12.1
CCn1c(CN2c3ccccc3Sc3ccccc32)n[nH]c1=S | 16.1
CC1CN(C(=O)c2ccc(Br)c(S(=O)(=O)N3CCOCC3)c2)CC(C)O1 (stereo not drawn) | 11.3
CC(C)C1Nc2ccc(C(=O)NC3CCCCC3)cc2NC1=O (stereo not drawn) | 15.3
COc1cccc(NC(=O)C(Cc2ccccc2)NC(=O)C2CCC(C)CC2)c1 (stereo not drawn) | 9.31
O=C(/C=C/c1ccco1)N1CCN(c2ccccc2)CC1 | 12.2
CCc1ccccc1Cn1c(=O)oc2cccnc21 | 12.9

Structure (SMILES) | hERG current change (%, negative = inhibition) at 1uM [%]
Cc1ccc2c(C)c(C(=O)NCc3ccc(S(N)(=O)=O)cc3)oc2c1 | 11.8
Nn1c(SCc2cccc3ccccc23)nnc1-c1ccco1 | 5.7
CCCCN(N=Nc1nonc1OC)c1nonc1OC | 9.5
S=c1[nH]nc(Cc2ccccc2)n1-c1ccccc1 | 20.3
CCOC(=O)COc1ccc(S(=O)(=O)NCCC2=CCCCC2)cc1 | 13.7
COc1ccc(CN(C)C(=O)CCCNC(=O)c2ccc(Cl)cc2)cc1 | -2.32
COc1ccc(C(=O)Nc2ccc([N+](=O)[O-])cn2)c(OC)c1 | 8.86
Fc1ccc(-c2ccnc(=S)[nH]2)cc1 | 19.9
O=[n+]1c2c(n([O-])c3cc(F)ccc31)CCCC2 | 3.96
Cc1cc(C)n2nc(SCC(=O)NC(=O)NCc3ccco3)nc2n1 | -4.02
C#CCOCCOCCOCCNc1nc(N2CCN(C(=O)CCCCCCCCCCNC(=O)[C@H](CCCCN)n3cc(CCCC(=O)O)nn3)CC2)nc(N2CCN(C(=O)CCCCCCCCCCNC(=O)[C@@H]([C@H](C)O)n3cc(C)nn3)CC2)n1 | 10.6
Nc1nc2ccccc2n1/N=C/c1ccc(Br)cc1 | 16.1
NC(=O)[C@@H]1CCCNc2c(I)cc([N+](=O)[O-])cc2C(=O)N[C@@H](Cc2ccccc2)C(=O)N[C@@H](Cc2cnc[nH]2)C(=O)N1 | 8.88
COCC(C)NC(=O)c1ccccc1OC(C)=O (stereo not drawn) | 2.1
CCn1ccnc1CN(C)Cc1cn[nH]c1-c1ccc(F)cc1F | 10.5
COc1ccccc1C(=O)NCCNC(=O)c1ccc(C)nc1 | 16
O=C(/C=C/c1ccccc1)N1CCCN(C(=O)/C=C/c2ccccc2)CC1 | -44
O=C(c1ccc2c(c1)OCO2)N1CCN=C1SCc1cccnc1 | 7.38
COc1ccc(Cl)cc1NC(=S)Nc1ccccc1C | 7.35

Structure (SMILES) | hERG current change (%, negative = inhibition) at 1uM [%]
CCCN(CC(=O)Nc1ccccc1C)CC(=O)Nc1ccc(Br)cc1F | 11.1
COC(=O)c1ccccc1NC(=O)C1CCCN(S(C)(=O)=O)C1 (stereo not drawn) | 8.69
c1ccc(CN2CCC3(CC2)Nc2ccccc2S3)cc1 | 13.6
CNc1ccc(Br)cc1C(O)c1ccccc1 (stereo not drawn) | 1.36
CCOc1ccc(N(CC(=O)NC2CCCC2)S(=O)(=O)c2c(C)noc2C)cc1 | 9.83
CCOC(=O)c1nnc2cc(-c3ccccc3)nn2c1C | 10.8
O=C(CSC1=NCCS1)Nc1ccnc2ccccc12 | 7.28
CC1CCN(Cc2nnnn2CCCC(=O)NCC(C)(C)N2CCOCC2)CC1 | 10.4
COc1cc(C=O)ccc1OCCOCCOc1ccccc1Cl | 6.08
CNC(=O)c1ccsc1NC(=O)c1ccccc1 | 1.95
Nc1nc(NCc2ccco2)nc(N2CCOCC2)c1[N+](=O)[O-] | 13.5
Cc1ccnc(NS(=O)(=O)c2ccc(NC(=O)c3oc4ccccc4c3C)cc2)n1 | 17.9
COc1ccc(Oc2c(Cl)cnn(-c3ccc(C)cc3)c2=O)cc1 | 15.1
Cc1ccc2[nH]c(=O)c(N3CCOCC3)c(-c3ccccc3)c2c1 | 10.9
Cc1ccnc(SCC(=O)N2CCN(C(c3ccccc3)c3ccccc3)CC2)n1 | 21.9
COc1ccc2nc3cc(Cl)ccc3c(C#N)c2c1 | 3.14
Cc1ccc(NC(=O)CN(C)C(=O)COc2c(Cl)cc(Cl)c3ccc(C)nc23)cc1 | -2.15
COc1ccccc1NS(=O)(=O)c1cc(NC(=O)CNC(=O)c2cc(C)cc(C)c2)ccc1C | 5.7
CCCCc1cc(=O)oc2cc(OCC(=O)N[C@@H](Cc3ccccc3)C(=O)O)ccc12 | 10.9
